Among all 39,000 compounds or so, about 220 (0.56%) showed activity. The list shows a part of the results.
What follows are compounds tested on Escherichia coli K-12 BW25113 (assay: relative growth (OD600 normalised to plate interquartile mean) (fraction); higher = less growth inhibition, active = 0.2 or less). Settings: 50 µM; LB; incubation time: overnight (16-24 h).
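Also: static incubation at 37 °C against the wild-type strain, values averaged over two biological replicates.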

Structure (SMILES) | relative growth
Cc1noc(C)c1NC(=O)N(C)C[C@H]1Oc2ccc(NS(C)(=O)=O)cc2CC(=O)N([C@H](C)CO)C[C@@H]1C | inactive: 0.995
C[C@@H]1CN([C@@H](C)CO)C(=O)c2cc(NC(=O)CCCN(C)C)ccc2O[C@@H](C)CCCCO[C@H]1CN(C)Cc1ccc(C(F)(F)F)cc1 | inactive: 0.972
COc1cc2c(N3CCN(C(=O)Nc4ccc(OC(C)C)cc4)CC3)ncnc2cc1OCCCN1CCCCC1 | inactive: 0.988
C[C@@H]1CCCCO[C@@H](CN(C)Cc2ccc(C(F)(F)F)cc2)[C@H](C)CN([C@@H](C)CO)C(=O)c2cc(NS(=O)(=O)c3cn(C)cn3)ccc2O1 | inactive: 1.01
CC(=O)N[C@@H](CC(C)C)C(=O)O | inactive: 0.957
C[C@H](CO)N1C[C@H](C)[C@@H](CN(C)Cc2ccc(-c3ccccc3)cc2)Oc2c(NC(=O)c3ccncc3)cccc2C1=O | inactive: 1.03
C[C@@H]1CN([C@H](C)CO)C(=O)c2cccc(NS(C)(=O)=O)c2O[C@H]1CN(C)Cc1ccc(C(=O)Nc2ccccc2N)cc1 | inactive: 0.998
COc1ccc(NC(=O)Nc2ccc3c(c2)C(=O)N([C@@H](C)CO)C[C@H](C)[C@@H](CN(C)Cc2ccc(C(F)(F)F)cc2)O3)cc1 | inactive: 1.04
C[C@@H]1CN([C@@H](C)CO)C(=O)c2cc(NC(=O)Nc3cccc4ccccc34)ccc2O[C@@H]1CN(C)Cc1ccccc1 | inactive: 1.07
CCCCc1ccc(CC(=O)O)cc1 | inactive: 0.986
Cc1ccc2sc(C)nc2c1 | inactive: 0.989
C[C@H](CO)N1C[C@H](C)[C@@H](CN(C)Cc2ccccc2)Oc2c(NS(=O)(=O)c3cn(C)cn3)cccc2C1=O | inactive: 0.986
O=C(NO)c1cccc(C(=O)N/N=C/[C@H](O)[C@@H](O)[C@H](O)[C@H](O)CO[C@H]2O[C@H](CO)[C@H](O)[C@H](O)[C@H]2O)c1 | inactive: 0.943
C[C@H](CO)N1C[C@H](C)[C@H](CN(C)S(=O)(=O)c2ccc(Cl)cc2)Oc2ccc(NC(=O)Nc3cccc4ccccc34)cc2C1=O | inactive: 0.986
C[C@@H]1CN([C@@H](C)CO)S(=O)(=O)c2ccc(C#Cc3ccncc3)cc2O[C@H]1CN(C)C(=O)Nc1ccc2c(c1)OCO2 | inactive: 0.997
C[C@H]1CN([C@@H](C)CO)C(=O)Cc2cc(NS(=O)(=O)c3ccc(F)cc3)ccc2O[C@@H]1CN(C)S(=O)(=O)c1cccs1 | inactive: 0.994
C[C@@H]1CN([C@@H](C)CO)C(=O)c2cccc(NS(C)(=O)=O)c2O[C@H]1CN(C)C(=O)Nc1ccc(C(F)(F)F)cc1 | inactive: 0.952
COC1=C(O)C(=O)c2c(cc3oc(C(C)=O)c(O)c3c2O)C1=O | inactive: 1.07
O=C(C1=C[C@@H](c2coc3ccccc3c2=O)C[C@@H](OCCCCO)O1)N1CCN(Cc2ccc3c(c2)OCO3)CC1 | inactive: 0.99
CN(C)C(=O)C[C@H]1CC[C@H](NC(=O)C2CC2)[C@H](CO)O1 | inactive: 1.01
CC(C)NC(=O)Nc1ccc2c(c1)CC(=O)N([C@@H](C)CO)C[C@H](C)[C@H](CN(C)Cc1ccc(C(=O)O)cc1)O2 | inactive: 0.99

Structure (SMILES) | relative growth
Cc1noc(C)c1NC(=O)Nc1ccc2c(c1)CC(=O)N([C@@H](C)CO)C[C@H](C)[C@H](CN(C)Cc1ccc(-c3ccccc3)cc1)O2 | inactive: 0.973
CCCCS(=N)(=O)CC[C@@H](N)C(=O)O (stereo partly drawn) | inactive: 1.01
CCNC(=O)C[C@@H]1CC[C@H]2[C@@H](COc3ccc(NS(=O)(=O)c4ccccc4C)cc3C(=O)N2C)O1 | inactive: 0.976
C=C1C2CCC3(C)C(c4ccoc4)OC(=O)CC13OC1CC(=O)C(C)(C)C(C(O)C(=O)OC)C12C (stereo not drawn) | inactive: 1.14
O=C(C[C@@H]1CC[C@H]2NC[C@H](O)COC[C@@H]2O1)NCCN1CCCCC1 | inactive: 0.993
CCC(=O)N1CCN=C1SC | inactive: 1.02
C[C@@H]1CN([C@@H](C)CO)C(=O)c2cc(NC(=O)Nc3ccc4c(c3)OCO4)ccc2O[C@@H](C)CCCCO[C@H]1CN(C)Cc1ccc(C(F)(F)F)cc1 | inactive: 0.972
C[C@@H]1CN([C@H](C)CO)C(=O)c2cccc(NC(=O)c3ccncc3)c2O[C@@H]1CN(C)S(=O)(=O)c1cccs1 | inactive: 0.973
O=C(O)CCc1n[nH]c(=S)[nH]c1=O | inactive: 0.947
C[C@H]1CN([C@@H](C)CO)C(=O)c2cc(NC(=O)CCC(F)(F)F)ccc2O[C@H]1CN(C)C(=O)Nc1cccc2ccccc12 | inactive: 0.997
C[C@@H]1CN([C@@H](C)CO)C(=O)c2cccc(NS(=O)(=O)c3cn(C)cn3)c2O[C@H]1CN(C)Cc1ccncc1 | inactive: 1
C[C@@H]1CCCCO[C@@H](CN(C)C(=O)Nc2cccc3ccccc23)[C@H](C)CN([C@@H](C)CO)C(=O)c2cc(NS(=O)(=O)c3ccccc3)ccc2O1 | inactive: 1.06
CN1C(=O)CO[C@H]2CN(C(=O)NCc3cccnc3)C[C@@H]21 | inactive: 1.03
Nc1ccc(S(=O)(=O)Nc2ccc(Cl)nn2)cc1 | inactive: 1.03
NCCCCCCNC(=O)[C@@H]1C[C@@H]2C(=O)N[C@@H](CCCCN)C(=O)N2[C@@H]1c1ccc(O)cc1 | inactive: 0.828
COCCNC(=O)C[C@@H]1C[C@H]2c3cc(NC(=O)Nc4ccc(C(F)(F)F)cc4)ccc3O[C@H]2[C@@H](CO)O1 | inactive: 1.01
C[C@@H]1CN([C@H](C)CO)C(=O)c2cc(NC(=O)Cc3ccccc3)ccc2O[C@@H](C)CCCCO[C@@H]1CN(C)Cc1ccc2c(c1)OCO2 | inactive: 1.01
C[C@@H]1CN([C@@H](C)CO)C(=O)c2cc(/C=C/c3ccccc3)cnc2O[C@H]1CN(C)C(=O)CN1CCOCC1 | inactive: 1.04
O=C(C[C@@H]1CC[C@@H]2[C@H](COC[C@@H](O)CN2C(=O)c2ccncc2)O1)NC1CCC1 | inactive: 0.999
Cc1ccc(S(=O)(=O)Nc2cccc3c2O[C@@H](CN(C)S(=O)(=O)c2c(C)noc2C)[C@@H](C)CN([C@H](C)CO)C3=O)cc1 | inactive: 1.01
COc1ccc(NC(=O)Nc2ccc3c(c2)C(=O)N([C@H](C)CO)C[C@H](C)[C@@H](CN(C)C(=O)NC2CCCCC2)OCCCC[C@H](C)O3)cc1 | inactive: 1.01

Structure (SMILES) | relative growth
COc1ccc(S(=O)(=O)N(C)C[C@H]2Oc3c(NC(=O)c4ccncc4)cccc3C(=O)N([C@@H](C)CO)C[C@@H]2C)cc1 | inactive: 1
COc1ccc(CN(C)C[C@H]2OCCCC[C@H](C)Oc3ccc(NC(=O)CCC(F)(F)F)cc3C(=O)N([C@@H](C)CO)C[C@@H]2C)cc1 | inactive: 1.04
NC1(C#Cc2cncc(C(=O)N3CCOCC3)c2)CCCCC1 | inactive: 0.914
NC(=O)NCC#Cc1ccc2c(c1)[C@]1(C(=O)N2)[C@H](C(=O)N2CCN(c3ncccn3)CC2)[C@H]2C(=O)O[C@H](c3ccccc3)[C@H](c3ccccc3)N2[C@@H]1c1ccccc1OCCO | inactive: 1.07
Nc1ncnc2c1nc(Br)n2[C@@H]1O[C@@H]2COP(=O)(O)O[C@H]2[C@H]1O | inactive: 0.844
C[C@H](CO)N1C[C@H](C)[C@@H](CN(C)Cc2ccc(Oc3ccccc3)cc2)Oc2ccc(NC(=O)C3CCCCC3)cc2C1=O | inactive: 1.01
Cc1noc(C)c1S(=O)(=O)N(C)C[C@H]1Oc2ccc(NC(=O)C3CCCCC3)cc2CC(=O)N([C@@H](C)CO)C[C@H]1C | inactive: 0.994
C[C@@H]1CN([C@H](C)CO)S(=O)(=O)c2ccc(-c3cccnc3)cc2O[C@@H]1CN(C)CC1CCOCC1 | inactive: 1.03
Cc1cc[nH]c(=O)c1 | inactive: 0.972
CN(C)CCN1CCN(C)C2(CCN(C(=O)c3ccn[nH]3)CC2)C1=O | inactive: 0.991
O=C(C[C@H]1C[C@@H]2c3cc(NS(=O)(=O)c4ccccc4)ccc3O[C@@H]2[C@@H](CO)O1)NC1CCCCC1 | inactive: 0.991
CO[C@H]1CN(C)C(=O)c2ccc(NS(=O)(=O)CC(F)(F)F)cc2OC[C@@H](C)N(Cc2nccs2)C[C@H]1C | inactive: 0.992
O=C(C[C@H]1C=C[C@H](NS(=O)(=O)c2ccccc2)[C@H](CO)O1)NCc1ccncn1 | inactive: 0.981
COC(=O)CC1C(C)(C)C(OC(C)=O)C2CC3C4CC(=O)OC(c5ccoc5)C4(C)CCC3C1(C)C2=O (stereo not drawn) | inactive: 0.979
CN(C)S(=O)(=O)Nc1cccc(N)c1 | inactive: 1.03
CC(C)NC(=O)N(C)C[C@H]1OCCCC[C@H](C)Oc2ccc(NC(=O)Nc3ccccc3)cc2C(=O)N([C@@H](C)CO)C[C@H]1C | inactive: 1
CO[C@@H]1CN(C)C(=O)c2ccc(NS(C)(=O)=O)cc2OC[C@H](C)N(C(=O)C2CCOCC2)C[C@H]1C | inactive: 0.994
Cc1ccc(S(=O)(=O)N(C)C[C@H]2OCCCC[C@H](C)Oc3ccc(NC(=O)Nc4cccc5ccccc45)cc3C(=O)N([C@H](C)CO)C[C@@H]2C)cc1 | inactive: 1.05
C[C@@H]1CN([C@H](C)CO)C(=O)c2cccc(NC(=O)c3cnccn3)c2O[C@H]1CN(C)Cc1ccc2c(c1)OCO2 | inactive: 0.989
C[C@H](CO)N1C[C@H](C)[C@H](CN(C)C(=O)NC2CCCCC2)Oc2ccc(NC(=O)Nc3cccc4ccccc34)cc2C1=O | inactive: 1.01
C[C@@H]1CN([C@@H](C)CO)C(=O)c2cccc(NC(=O)Nc3ccc(C(F)(F)F)cc3)c2O[C@@H]1CN(C)S(=O)(=O)c1ccc(Cl)cc1 | inactive: 0.959

Source: the supplement of paper PMC9446081
